{"source": "patent US12268674B2", "about": "“Mi-2β inhibitor as an immunotherapy agent” (BioVentures, LLC, priority 2021, dated 2025)", "system": "BRaf^V600E/Pten^null melanoma", "note": "Like-named read-outs stand apart in the source and are kept apart here.", "data": [{"smiles": "Cn1c(=O)[nH]c2ccc(-c3cccc(C(=O)NC4CCn5ccnc5C4)c3)cc21", "note": "(stereo not shown) [Z36-MP5, 3-(3-methyl-2-oxo-2,3-dihydro-1H-benzo[d]imidazol-5-yl)-N-(5,6,7,8-tetrahydroimidazo[1,2-a]pyridin-7-yl)benzamide]", "values": [{"measurement": "expression of GZMB, CD69, IFN-γ, CD25 or CD107 in CD8+ T cells", "setting": "Z36-MP5", "value": "increased expression"}, {"measurement": "mouse survival", "setting": "Z36-MP5 30 mg/kg once a day in combination with anti-PD-1 10 mg/kg, BRaf^V600E/Pten^null mice", "value": "significantly extended mouse survival"}, {"measurement": "CD8+ T cell population in TILs", "setting": "Z36-MP5 alone", "value": "moderately induced"}, {"measurement": "CD4+ T cell and Treg populations", "setting": "Z36-MP5 alone or in combination with anti-PD-1", "value": "not affected"}, {"measurement": "CD8+ T cell population in TILs", "setting": "Z36-MP5 with anti-PD-1", "value": "further augmented"}, {"measurement": "expression of GZMB, CD69, IFN-γ, CD25 or CD107 in CD8+ T cells", "setting": "Z36-MP5 with anti-PD-1", "value": "further augmented"}, {"measurement": "mouse lifespan", "setting": "treatment alone, BRaf^V600E/Pten^null mice", "value": "did not extend mouse lifespan"}]}]}
